Data as given in PubChem BioAssay AID1159614 (National Center for Advancing Translational Sciences (NCATS), 2016).
Hit rate of the full screen: of about 45,000 compounds, about 65 (0.1%) were called active. Calls follow the shape of the dose curve; as a rule, active = well fitted activation curve with a large enough effect; inconclusive = small, poorly fitted or top-dose-only effect; inactive = no such curve, though single readings can be large or run the other way. Some of the results follow.

molecular target: Galactocerebrosidase (Homo sapiens) (UniProt P54803); assay: A Novel Cell-Based Assay to Identify Small Molecules for B -Galactocerebrosidase; settings: 145M-Twi-hGALC-G270D cells (Twitcher mouse brain line with human GALC G270D), HMU-beta-Gal fluorescence, 48 h; series mostly up to 57.5 µM; activation: at the top concentration; also: 0% is about no effect; nearly all actives have a fitted effect of over 65% in size
In short: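 Fluorescence readout: HMU-β-gal cleavage by mutant GALC (0.1 mM final, citrate/phosphate pH 5.2 with 1 mg/mL taurocholate), stopped with carbonate/bicarbonate plus Triton X-100. Cells: murine Twitcher 145M-Twi expressing human G270D GALC; qHTS for activators.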

Chain of UniProt P54803 (P54803 whole entry, looked up): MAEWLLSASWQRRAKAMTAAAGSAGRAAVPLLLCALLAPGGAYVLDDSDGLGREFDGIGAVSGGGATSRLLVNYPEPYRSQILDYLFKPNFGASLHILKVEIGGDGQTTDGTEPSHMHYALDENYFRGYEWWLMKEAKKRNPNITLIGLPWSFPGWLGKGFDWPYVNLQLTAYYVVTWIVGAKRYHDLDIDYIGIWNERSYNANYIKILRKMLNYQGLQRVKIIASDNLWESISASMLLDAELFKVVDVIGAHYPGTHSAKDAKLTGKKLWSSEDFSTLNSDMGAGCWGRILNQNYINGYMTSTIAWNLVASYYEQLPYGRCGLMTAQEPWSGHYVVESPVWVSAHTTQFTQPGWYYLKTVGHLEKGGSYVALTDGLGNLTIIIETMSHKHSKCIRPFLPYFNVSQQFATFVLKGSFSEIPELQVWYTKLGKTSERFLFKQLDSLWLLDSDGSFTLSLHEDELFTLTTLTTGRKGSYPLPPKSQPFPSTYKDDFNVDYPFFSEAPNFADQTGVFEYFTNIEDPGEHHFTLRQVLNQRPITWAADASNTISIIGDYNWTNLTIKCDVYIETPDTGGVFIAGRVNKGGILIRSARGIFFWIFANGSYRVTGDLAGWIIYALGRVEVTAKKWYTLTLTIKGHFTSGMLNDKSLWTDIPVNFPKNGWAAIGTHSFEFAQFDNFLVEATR

activation, inactive:
COc1ccc(N2CC(NC(=O)c3ccc(S(=O)(=O)N4CCCCC4)cc3)CC2=O)cc1OC (configuration not stated) 6.54%, O=C(CCNS(=O)(=O)c1ccc2c(c1)CCN2C(=O)C1CC1)Nc1ccc(F)cc1F -40.1%, CCOC(=O)c1ccc(NC(=O)Cn2cc(C(=O)c3ccc(Cl)cc3)c(=O)c3ccc(C)nc32)cc1 -10.9%, COc1cc(OC)cc(-c2nc3nc(C)c(CCC(=O)Nc4cc(F)ccc4F)c(C)n3n2)c1 -4.78%, Fc1ccc2c(c1)NC(c1ccncc1)=NC(c1cccs1)=N2 -18.4%, Cc1c(NC(=O)c2cc(=O)c3cc(Cl)ccc3o2)c(=O)n(-c2ccccc2)n1C -9.65%, Cc1cccc(-c2nc(Cn3c(SCc4cccc(C(F)(F)F)c4)nc4ccncc43)c(C)o2)c1 -8.24%, Cc1nc2c(C(=O)NC(C)c3ccccc3)cnn2c(C)c1Cc1ccccc1 (configuration not stated) -32.1%, COC(=O)c1cc2occc2n1Cc1nc(-c2ccc(C)cc2)oc1C -12%, CCC(=O)Nc1nnc(S(=O)(=O)N2CCc3ccccc32)s1 5.12%, Cc1cccc(-n2nnnc2S(C)(=O)=O)c1 -12.5%, CCc1ccc(-c2[nH]c3c(c2-c2sc(C)c(C(=O)OC)c2O)c(=O)n(C)c(=O)n3C)cc1 -11.6%, O=C(Cc1ccccc1)Nc1c(C(=O)Nc2ccccc2F)oc2ccccc12 -10.3%, CCn1cc(C(=O)NCc2ccccc2)c(=O)c2cc(S(=O)(=O)N3CCCCCC3)ccc21 -8.83%, COc1ccc(NC(=O)c2ccc(COc3ccccc3OC)o2)cc1OC -11.4%, Cc1ccc(OCc2nc3ccccc3n2Cc2ccccc2Cl)cc1 -19.6%, COc1cccc(CNC(=O)CCC(=O)N2Cc3cccc(OC)c3Oc3ncccc32)c1OC -12.9%, CCCNC(=O)CCc1c(C)nc2nc(-c3cc(OC)cc(OC)c3)nn2c1C -0.707%, Cc1c(NC(=O)c2ccccc2F)cccc1-c1nc2cccnc2s1 -8.98%, CC(=O)N1CCCc2cc(S(=O)(=O)N(C)CC(=O)Nc3ccc(Cl)cc3C)ccc21 -14.6%, N=C(N)c1ccc2cc(OC(=O)c3ccc(N=C(N)N)cc3)ccc2c1 -5.33%, O=C(Cn1ncc2c(=O)oc3ccccc3c21)NCc1ccc(Cl)cc1 -13.2%, COc1cccc2sc(N(Cc3cccnc3)C(=O)C3COc4ccccc4O3)nc12 (configuration not stated) 0.762%, COc1ccc(N(C)C(=O)CCS(=O)(=O)c2cccc3nsnc23)cc1 -0.968%, CCOc1ccc(CCNC(=O)CN(c2ccc(C)cc2)S(=O)(=O)N(C)C)cc1OCC -3.15%, O=c1c(S(=O)(=O)c2ccccc2)cn(Cc2ccc(F)cc2)c2cc(N3CCCCC3)c(F)cc12 -7.88%, COc1ccc2c(c1)CCc1c(C(=O)Nc3c(C)nn(Cc4ccc(C)cc4)c3C)noc1-2 -2.93%, Cc1ccc(C)c(NC(=O)c2cc(S(=O)(=O)NCCC3=CCCCC3)ccc2F)c1 -26.4%, COc1ccc(CNC(=O)C(C(C)C)N2Cc3ccccc3C2=O)cc1 (configuration not stated) -13.2%, CCCN(CCC)C(=O)C1CCN(c2ncnc3c2nc2n3CCCCC2)CC1 -5.55%, Cc1ccc(-n2c(=O)c3c(c4cc(C)ccc4n3C)n(CC(=O)Nc3cc(C)cc(C)c3)c2=O)cc1 -12.8%, C[C@H]1C[C@@H]2[C@H]([C@@H](O)C[C@@]3(C)[C@H]2CC[C@]3(O)C(=O)CO)[C@@]2(C)C=CC(=O)C=C12 -10%, COC(=O)c1nnn(CC(=O)Nc2ccc(Br)c(C)c2)c1N -15.8%, Cc1ccc(-c2onc(C)c2C)cc1S(=O)(=O)NC1CCCCC1 -11.1%, CC1Cn2cc(C(=O)Nc3cccc(C(F)(F)F)c3)c(=O)c3c(Cl)ccc(c32)O1 (configuration not stated) -8.17%, CCOC(=O)c1c(-c2ccc(OC)cc2)oc2ccc(OCc3ccc(C(=O)OC)cc3)cc12 -11.1%, CCNc1c(NC(=O)c2cc(OCC)c(OCC)c(OCC)c2)c(=O)oc2ccccc12 -16.4%, CCN1CCN(CCCNC(=O)c2ccc3c(c2)sc2nc(-c4ccc(OC)cc4)cn23)CC1 0.915%, COc1cccc(CNC(=O)CCn2cccn2)c1 -10.3%, CC(NC(=O)C(=O)Nc1c2c(nn1-c1ccc(F)cc1)CSC2)c1ccccc1 (configuration not stated) -10.4%, CCC(=O)N1CCc2cc(Br)cc(S(=O)(=O)NCCc3ccccc3)c21 -10.5%, CCOC(=O)c1c(NC(=O)COc2ccc(F)cc2)sc2c1CCC(C)C2 (configuration not stated) -43%, O=C(NCCCN1CCN(c2ccccc2F)CC1)c1nnc(Cc2ccc(Cl)cc2Cl)o1 -24.8%, CCCCC/C=C\C/C=C\CCCCCCCC(=O)NC(C)c1ccccc1 (configuration not stated) -30.9%, NC(=O)C1(N2CCCCC2)CCN(CCCN2c3ccccc3CCc3ccc(Cl)cc32)CC1 -6.62%, Cc1cc(C)c(Cn2c(C(O)c3ccccc3)nc3ccccc32)c(C)c1 (configuration not stated) -13.5%, COc1cccc(CNC(=O)CCNS(=O)(=O)c2ccc3c(c2)oc(=O)n3C)c1 -9.04%, O=C(CSc1nc2ccccc2n1Cc1ccccc1Cl)NCc1ccccc1 -17%, CC(C)(C)C(=O)Nc1cccc(C(=O)OCc2cc(=O)n3nc(C4CCCCC4)sc3n2)c1 -19.5%, N#C/C(=C\c1ccc(-c2cc(Cl)ccc2Cl)o1)C(=O)Nc1ccccc1C(=O)O -13.4%, CCCCN(C)CCNC(=O)c1nn(-c2ccc(OC)cc2)c(=O)c2c1c1ccccc1n2C -4.84%, CCOC(=O)c1[nH]cnc1C(=O)Nc1ccc(F)cc1 -8.7%, COc1ccccc1OCC(O)CN1CCN(CC(=O)Nc2c(C)cccc2C)CC1 (configuration not stated) -18.1%, Cc1ccn2c(=O)c(C(=O)NCc3ccccc3Cl)c(O)nc2c1 -8.98%, COc1cc(OC)c(NC(=O)c2c3c(nn2C)-c2ccccc2SC3)cc1Cl -10.3%, CCc1ccccc1Nc1nn2c(=O)c3ccc(C(=O)NC4CCCCC4)cc3nc2s1 8.19%, CC1(C(=O)Nc2ncc(Cc3ccc(Br)cc3)s2)Cc2ccccc2C(=O)O1 (configuration not stated) -23%, COc1cccc2c1Oc1ncccc1N(c1ccc(C(=O)NCc3cccc(C)c3)s1)C2 -16.7%, Cc1ccc(N2CC(NC(=O)C3CCCCC3)CC2=O)cc1C (configuration not stated) -8.47%, COc1cccc(C(=O)Nc2ccc(NC(=O)c3ccc(C(C)(C)C)cc3)cc2)c1 3.07%, COC(=O)C(CCSC)NC(=O)c1cc2c(n(-c3ccc(OC)cc3)c1=O)CC(C)(C)CC2=O (configuration not stated) -16.3%, O=C(Nc1cc(Cl)cc(Cl)c1)c1ccc(F)c(S(=O)(=O)NCc2ccccc2Cl)c1 -13.7%, O=C(Nc1cccc2c(=O)cc(-c3nn[nH]n3)oc12)c1ccc(OCCCCc2ccccc2)cc1 -4.8%, COc1cc(OC)c(Nc2c3c(nc4nc(-c5cccs5)nn24)CCCC3)cc1Cl -3.76%, Cc1ccccc1-c1nnc(SCC(=O)N2CCCCC2)o1 -4.93%, CCOc1ccc(NS(=O)(=O)c2ccc3nc(-c4ccccc4)[nH]c3c2)cc1 -7.51%, CCN(c1ccccc1)S(=O)(=O)c1nnc(NC(=O)c2ccco2)s1 2.81%, CCC(C)NC(=O)c1ccc2nc(Cc3ccccc3)oc2c1 (configuration not stated) -10.8%, COc1ccc(-c2nc3scc(CCNC(=O)Cc4ccc(F)cc4)n3n2)cc1 -9.97%, Cc1ccc(-n2ncc(C(=O)Nc3c(Cl)cccc3Cl)c2C2CCNCC2)cc1 3.27%, Cc1nn(-c2ccccc2)c2sc(C(=O)Nc3cccc(O)c3)cc12 -10.3%, Cn1c(=O)cc(OCC(=O)NCc2ccc(F)cc2Cl)c2ccccc21 4.34%, COc1ccc(CCNC(=O)CCCn2nc(C)c3sc4ccccc4c3c2=O)cc1OC -3.34%, Cc1ccc(-c2nc(CS(=O)(=O)CC(=O)Nc3cc(C)ccc3C)c(C)o2)cc1 -9.82%, COc1cc(CN(C(=O)COc2ccc(Cl)c(C)c2)c2ccccn2)cc(OC)c1OC -40.3%, Cc1csc2nc(COc3ccccc3NC(=O)c3ccccc3Cl)cc(=O)n12 -9.02%, CSc1ccc(CCNC(=O)c2ccc(CS(=O)Cc3ccc(Cl)cc3)o2)cc1 (configuration not stated) -12.4%, O=C(COCc1cc(-c2ccc3c(c2)OCO3)on1)NCc1ccc(F)cc1 -1.04%, Cc1ccc2nc(-c3ccc(Cl)c(NC(=O)c4ccc(Br)o4)c3)oc2c1 -1.91%, CSc1nc2c([nH]c3ccccc32)c(=O)n1-c1ccc(C)cc1 -12.1%, O=C(Nc1ccccc1Cl)c1cc2c(-c3ccccc3)nn(-c3ccccc3)c2s1 -10.2%, Cc1cccc(-c2nc(CSCC(=O)N3CCN(c4cccc(C)c4C)CC3)c(C)o2)c1 -23.1%, CCc1ccc2c(c1)NC(c1cccnc1)=NC(c1ccc(C(C)(C)C)cc1)=N2 -35.9%, Cc1ccc(Cl)cc1NC(=O)c1cc(S(=O)(=O)N2CCCCCC2)cn1C -1.73%, Cc1ccc(C)c(N2CCN(S(=O)(=O)c3cc(C(=O)Nc4cc(Cl)cc(Cl)c4)ccc3F)CC2)c1 -22.5%, COc1cc(C2CC(=O)Nc3c2c(C)nn3-c2nncc(-c3ccccc3)n2)cc(OC)c1OC (configuration not stated) -13%, CCOc1ccc(C(=O)Nc2cccc(-c3nc4cccnc4s3)c2C)cc1OCC -12.2%, COc1ccc(Nc2ncc3c(n2)CCN(Cc2ccc(Br)s2)C3)c(OC)c1 -6.29%, COc1ccc(/C=C/c2nc(C#N)c(N3CCC(C)CC3)o2)cc1OC 2.51%, Cc1ccc2nc3c(cc(C#N)c(=O)n3-c3nnc(SCc4ccccc4Cl)s3)c(=O)n2c1 -6.73%, O=C(OCc1cc(=O)n2nc(-c3cccs3)sc2n1)c1ccc(F)cc1 0.638%, CCN(c1ccccc1)c1nnc(NC(=O)Nc2ccc(C)cc2)s1 -16.4%, CC(=O)N1N=C(c2ccc(C)cc2)CC1c1cn(-c2ccccc2)nc1-c1cccs1 (configuration not stated) 6.84%, CSc1ccc(CCNC(=O)c2ccc(-n3c(C)cc4c3CCCC4)cc2)cc1 -15.2%, CCC1CN(C(=O)N2CCC(C(=O)O)CC2)c2cc(C)ccc2O1 (configuration not stated) -6.69%, CCCNCC(O)COc1ccccc1C(=O)CCc1ccccc1 (configuration not stated) -15.8%, Cc1ccc(CCNC(=O)c2ccc(CSCc3ccccc3C)o2)cc1 3.99%
